Results: the supplement of paper PMC4466236
Whole data set: some 33,000 sequences, median “E-score (dimensionless, -0.5 to 0.5)” near -0.058, cut for the highest 2% near 0.35. Some of the results follow.

The sequences below were run on MvaT (assay: PBM 8-mer E-score (mean of HK and ME arrays) (E-score (dimensionless, -0.5 to 0.5)); higher = stronger relative binding preference; most listed sequences are background and not binding sites).
Method in brief: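 Full-length P. aeruginosa MvaT, with glutathione S-transferase fused to its N-terminus (cloned into pTH6838 by isothermal assembly), was tested by protein binding microarray using a previously described protocol. Two universal double-stranded 60-mer arrays (ME and HK) were used, each with a constant 25-mer primer region and a variable 35-mer region covering all 8-mers. The rank-based 8-mer E-score (-0.5 to 0.5) is the mean of the two arrays, parsed with a custom Python script.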

Row | Sequence | PBM 8-mer E-score
1 | AAGCTCAT | -0.0238
2 | CCTCACCC | -0.165
3 | GCTCTCAC | -0.206
4 | GCTACCGA | -0.234
5 | CGCCTGCC | -0.0816
6 | AAGTCCGC | 0.0463
7 | CTCCGCTA | -0.115
8 | AGGTCCGG | -0.246
9 | ACAGAACG | -0.148
10 | CCCCTGTC | -0.221
11 | CCGTTTTC | -0.095
12 | ATAATATG | 0.435
13 | AGGCCTAA | -0.204
14 | AACTCCCA | -0.103
15 | ACACCTTG | -0.0951
16 | CACGAAAA | 0.0841
17 | GATCCCTA | -0.173
18 | GTCGGTGA | -0.0748
19 | ACCTTGTA | 0.0343
20 | AAGCTGCC | -0.31
21 | AATCCTCA | -0.115
22 | CAAAACTA | 0.201

Row | Sequence | PBM 8-mer E-score
23 | GACGCACC | -0.0485
24 | CGCTATCA | -0.149
25 | GGATCGAA | -0.204
26 | CAACCGTA | -0.054
27 | AAATAGCG | 0.201
28 | CTGTAATA | 0.36
29 | ATAAAAAT | 0.293
30 | CCCGGGGA | -0.299
31 | CTCGAGCC | -0.282
32 | AAGAACGC | 0.00314
33 | ATTGGTTG | 0.0565
34 | AGATCTTC | -0.0782
35 | GATAGAAC | 0.0967
36 | ATTGCTGA | -0.0547
37 | ATCCGGAC | -0.0907
38 | CCGGCCAG | -0.243
39 | GAATGTAC | 0.161
40 | CCCCATTA | 0.0583
41 | ATTTACAC | 0.255
42 | GATTTCCC | -0.00935
43 | CGGCTAAC | -0.181
44 | ATTAGGAA | 0.0514

Row | Sequence | PBM 8-mer E-score
45 | AACGTTAA | 0.31
46 | AGCGGACT | -0.0758
47 | ATACTAGC | 0.192
48 | GATGACTA | 0.0511
49 | CAATGTAC | 0.163
50 | GGATCAAC | -0.144
51 | ATAAGGTA | 0.207
52 | TCCTTCGA | -0.106
53 | GATCGAAA | -0.082
54 | GAAGATTC | -0.0282
55 | AAGAGTTC | 0.0252
56 | GAAAGTTC | 0.219
57 | ACAACGCT | -0.0466
58 | AGTAGGTA | 0.0489
59 | CTTTCGCC | -0.0952
60 | GAACACTC | -0.215
61 | CCGCCTAA | -0.0954
62 | GCTGCCGA | -0.235
63 | GTACTCTA | 0.068
64 | CGGTAGAC | -0.255
65 | AATTGCGA | 0.231
66 | AACGTCCT | -0.224

Row | Sequence | PBM 8-mer E-score
67 | AGACAAGA | 0.0932
68 | TAACACAA | 0.295
69 | AGCTTGGA | -0.0712
70 | ACAGGTCC | -0.217
71 | AATATCAA | 0.338
72 | GCATTATA | 0.309
73 | ATAAATAG | 0.358
74 | CTGCAGAC | -0.0289
75 | CAGAATAA | 0.234
76 | AGGCCTAG | -0.103
77 | AGTTCAAA | 0.268
78 | AACCCTAT | -0.0198
79 | GCTCAATA | 0.134
80 | CCAGATAC | -0.0554
81 | GGTGCGAC | -0.205
82 | CAATCTAC | 0.032
83 | CCGGCATA | 0.0353
84 | CGTCTAAA | 0.0417
85 | GCTCGGCA | -0.252
86 | CTGAGTAC | -0.0958
